Screen size: about 150,000 compounds; about 540 (0.36%) showed an effect of 50% or more. The list shows a part of the results.
System: Plasmodium falciparum
Assay: Primary screen in NF54 nanoGlo assay, in single point, at 2uM, 72h; a lower Z score goes with more inhibition
Format: functional, Erythrocyte
Conditions: timepoint 72 hour

| Structure (SMILES) | % Inhibition | Z score | % Inhibition (2 µM) | Z score (2 µM) |
| --- | --- | --- | --- | --- |
| CCOC1CC(O)(CNc2ncnc3ccsc23)C1(C)C (stereo not given) | 2% | -0.32 |  |  |
| Cc1ccc2c(c1)N(C(=O)c1nccn3ccnc13)CCC2 | 5% | -0.58 |  |  |
| CC(C)Oc1cncc(C(=O)N(C)Cc2nccn2C)c1 | 2% | -0.3 |  |  |
| CN(CC(=O)N1CCN(C2CC2)c2cc(Cl)ccc21)S(C)(=O)=O | 4% | -0.62 |  |  |
| CCN(CC)C(=O)CNC(=O)N(C)CC1CCC1 | -7% | 0.95 |  |  |
| COC[C@H](O)c1cccc(NC(=O)c2cc(C)sn2)c1 | -1% | 0.23 |  |  |
| COCCn1cc(-c2cc(C)cc3nccn23)cn1 | 5% | -0.64 |  |  |
| COc1ccc(CN2CCc3cc(OC)c(OC)cc3[C@@H]2CNC(=O)Cc2ccccc2)cc1 | -3% | 0.38 |  |  |
| Cc1cc(Cc2nc(C3CC3)no2)n[nH]1 | 5% | -0.5 |  |  |
| O=C(NCCN1CCCCC1)c1cc2n(n1)CCN(Cc1cccc(F)c1)C2=O | -5% | 0.77 |  |  |
| Nc1nnnn1CC(=O)N[C@H]1CCOC[C@@H]1Oc1cccc(F)c1 | -11% | 2.14 |  |  |
| COc1ccc(CCC(=O)N2CCC3(CC2)C[C@@H](N2CCN(C(C)C)CC2)CCO3)cc1 | -10% | 1.1 |  |  |
| Cc1cc(CNC(=O)N2C[C@H]3CC=CC[C@H]3C2)no1 | -18% | 3.11 |  |  |
| CN1CCC(N(C)S(=O)(=O)C[C@H]2C[C@H]3CCCC[C@H]32)C1=O (stereo not given in full) | -11% | 1.63 |  |  |
| CC(C)(C)OC(=O)N1CCC[C@@H]1CCNC(=O)C(c1ccccc1F)N1CCOCC1 (stereo not given in full) | -8% | 0.77 |  |  |
| Cc1cc(NC(=O)c2c(F)cccc2Cl)nc(C(C)C)n1 | -9% | 1.11 |  |  |
| COc1ccc(NC(=O)CCNS(=O)(=O)c2ccc(C)cc2)cc1OC1CCCC1 | -4% | 0.55 |  |  |
| Cc1noc(C(=O)Nc2ccc(O)cc2)n1 | -7% | 0.84 |  |  |
| Cc1nn(-c2ccc(N3CCOCC3)nn2)c(C)c1CCC(=O)N1CCN(c2ccccn2)CC1 | -8% | 1.6 |  |  |
| Cc1ccccc1OCC(=O)NC[C@@](O)(c1ccco1)C1CC1 | 2% | -0.31 |  |  |
| CC(C)N(CCc1nccs1)C(=O)c1ccncc1F | 5% | -0.48 |  |  |
| CS(=O)(=O)NC[C@@H](c1ccsc1)n1cccn1 | -7% | 1.35 |  |  |

| Structure (SMILES) | % Inhibition | Z score | % Inhibition (2 µM) | Z score (2 µM) |
| --- | --- | --- | --- | --- |
| O=C(c1cscn1)N1CC[C@@]2(CCCN(Cc3ccc(F)c(F)c3)C2=O)C1 | -7% | 0.99 |  |  |
| O=C(C[C@@H]1C=CCC1)NCCN1CCCCC1=O | -8% | 1.08 |  |  |
| CC(C)S(=O)(=O)N1CCC[C@H](CCc2noc(-c3ccccn3)n2)C1 | -5% | 0.83 |  |  |
| Cc1ccncc1C(=O)NCC(=O)N1CCCCCNC(=O)C[C@H]1c1ccccc1 | -9% | 1.23 |  |  |
| O=S(=O)([C@H]1CCCN(c2ccc3nccnc3n2)C1)N1CCOCC1 | -21% | 2.64 |  |  |
| O=C(NCc1ccc(-c2ccoc2)cc1)c1cncc(Br)c1 | -7% | 0.77 |  |  |
| N[C@@H](CCCCc1ccccc1)c1ccccc1 | -9% | 1.27 |  |  |
| CC(C)[C@H](NC(=O)Cc1cccc(F)c1F)c1ncnn1C | -9% | 0.85 |  |  |
| O=C(Cn1nc2c(N3CCCCCC3)nccn2c1=O)NCc1ccc2c(c1)OCO2 | -5% | 0.95 |  |  |
| CC(CC(=O)N1CCC(OCc2ccccn2)C1)c1ccccc1C(F)(F)F (stereo not given) | 4% | -0.69 |  |  |
| O=S(=O)(c1cc(-c2nnc(C3CCCC3)o2)co1)N1CCN(c2ccccc2)CC1 | -8% | 1.05 |  |  |
| Cc1noc(C)c1C(=O)NC[C@H]1Cc2ccccc2CO1 | -6% | 0.74 |  |  |
| C[C@H](NCc1ccon1)c1ccccc1N(C)C | 0% | 0 |  |  |
| Cc1nc2cc(C(=O)N3CCOC[C@@H]3CC3CCC3)ccc2o1 | -1% | 0.07 |  |  |
| Cc1c(Cl)c(CN2Cc3ccccc3C[C@@H]2C(=O)NC2CC2)nn1C | 0% | 0.05 |  |  |
| O=C(C[C@H]1CCCC1(F)F)Nc1ccc2cnccc2c1 | -1% | 0.23 |  |  |
| Cc1cc(NC(=O)NC23CC2COC3(C)C)nn1C(C)C1CC1 (stereo not given) | -12% | 2.2 |  |  |
| O=C(Cc1cccnc1)N1CCC(N2C[C@H](OCC3CC3)C23CCOCC3)CC1 | -1% | 0.15 |  |  |
| COC(=O)c1ccc(-c2noc(CN3CCC(C(=O)N4CCOCC4)CC3)n2)cc1 | -1% | 0.07 |  |  |
| COc1cc(C(=O)O)ccc1CCNC(=O)c1nc(C)sc1C | -10% | 1.29 |  |  |
| COCCN(CCOC)C1CN(C(=O)c2ccn(C)n2)C1 | 4% | -0.81 |  |  |
| CC(=O)c1cn(Cc2ccco2)c(=O)n(C)c1=O | 30% | -3.89 |  |  |

| Structure (SMILES) | % Inhibition | Z score | % Inhibition (2 µM) | Z score (2 µM) |
| --- | --- | --- | --- | --- |
| COc1ccc(-c2cc(C)no2)cc1S(=O)(=O)N1CCCN(Cc2ccc(F)cc2)C1 | 7% | -0.95 |  |  |
| CCOC(=O)N1CCC(NC(=O)c2cnn3c(-c4ccc(C(C)C)cc4)ccnc23)CC1 | 32% | -3.58 |  |  |
| CC[C@H](NS(=O)(=O)N1CCCC1)c1ncccc1C | -3% | 0.48 |  |  |
| Cc1cc(Cl)cc2c(=O)n([C@H]3CC[C@H](N)C3)cnc12 | 10% | -2.01 |  |  |
| CC(C(=O)N1CC(=O)Nc2ccccc21)N1CCOC(c2ccc(Cl)cc2)C1 (stereo not given) | -5% | 0.73 |  |  |
| O=C(Nc1ccc(Oc2ccccc2)cc1)c1ncn(C[C@H](O)c2ccc(F)cc2)n1 | 2% | -0.18 |  |  |
| COc1ccccc1N(CC(F)(F)F)C(=O)C1OCCC1C (stereo not given) | 3% | -0.48 |  |  |
| Cc1cc(S(=O)(=O)NC[C@H]2CCOCO2)c(Cl)cc1F | -6% | 1.04 |  |  |
| COc1ccc(CN2C(=O)c3ccccc3C2=O)cc1C(=O)N1CCC(C(=O)N[C@@H](C)C(C)C)CC1 | 2% | -0.22 |  |  |
| O=C(Nc1cccc(-c2nc3ccccc3s2)c1)C1=COCCO1 | -20% | 2.65 |  |  |
| Cc1ccc(OCc2nc(C)c(C)o2)nc1 | 6% | -0.91 |  |  |
| CCOC(=O)C1=C(c2ccccc2)S/C(=C2/C(=S)C(C)(C)Nc3cc(OCC)ccc32)S1 |  |  | -7% | 4.44 |
| CN(C)C(=O)CN1C(=O)[C@@H]2CC[C@H]1CN(C(=O)CCc1ccc(Cl)cc1)C2 | -6% | 1.24 |  |  |
| C[C@@H](NCc1cncc(Br)c1)c1ccccc1 | 3% | -0.39 |  |  |
| CNc1ccc(C(F)(F)F)cc1C(=O)O | 10% | -1.5 |  |  |
| Cn1c(=O)n(C)c2cc([C@@H](O)COc3ccc(CNC4CCCCCC4)cc3)ccc21 | -23% | 2.05 |  |  |
| CC1(F)CN(C(=O)NCc2ncc(Br)cn2)C1 | 2% | -0.39 |  |  |
| CN(Cc1ccccc1)[C@@H](c1cnn(C)c1)c1sc2ncnn2c1O | 10% | -1.5 |  |  |
| C#C[C@@H](NC(=O)NCCc1ccnn1C)C(C)C | -6% | 0.62 |  |  |
| CC1CCCN(c2oc(C3CC3c3ccccc3)nc2C#N)C1 (stereo not given) | -10% | 1.38 |  |  |
| CCc1nn(C)c2c(=O)n(CC(C)(C)N3CCOCC3)cnc12 | -5% | 0.98 |  |  |
| CC(=O)NC1(C(=O)N2CCN(C3CCCC3O)CC2)CCCCC1 (stereo not given) | 4% | -0.57 |  |  |

| Structure (SMILES) | % Inhibition | Z score | % Inhibition (2 µM) | Z score (2 µM) |
| --- | --- | --- | --- | --- |
| COc1ccc(CNC(=O)[C@]2(C)Cn3cnc(C(=O)NC4CCCCCC4)c3C(=O)N2C2CC2)cc1 | -1% | 0.06 |  |  |
| N#CCCn1cc(CNc2ccc(F)cn2)c(-c2ccccc2)n1 | -7% | 0.76 |  |  |
| CCC(C)(C)COC(=O)c1ccc(C#N)c(C)n1 | -12% | 1.77 |  |  |
| CNS(=O)(=O)CC(=O)N[C@H]1CCN(c2ccc(F)c(Cl)c2)C1 | 6% | -1.15 |  |  |
| COC(=O)[C@H]1CC[C@@H](NC(=O)Nc2cccc(C(C)(F)F)c2)C1 | -19% | 2.26 |  |  |
| Cc1nonc1CN(C)C(=O)c1coc(Cn2cnc3ccccc32)n1 | -10% | 1.67 |  |  |
| Cc1nc(N)ncc1C(=O)N1CCOC(C)(C)C1 | -15% | 1.47 |  |  |
| OCC[C@H]1CN(Cc2cnc(N3CCCC3)s2)CCN1Cc1ccsc1 | -5% | 0.68 |  |  |
| COc1cccc(NC(=O)Cn2c(=O)c3cc(C4CC4)nn3c3ncccc32)c1 | 11% | -2.13 |  |  |
| CC(C)N(C(=O)CCOC1CCOCC1)c1cnn(C)c1 | -17% | 1.51 |  |  |
| CC(C)c1cccc(OCc2nnn(C(C)(C)C)n2)c1 | -12% | 1.67 |  |  |
| CCOC1CC(NC(=O)COCc2nc(C)no2)C12CCCC2 (stereo not given) | -13% | 1.65 |  |  |
| CNc1nc(C)cc(C(=O)Nc2ccc(Cl)cc2NC(C)=O)n1 | 33% | -0.34 |  |  |
| CCOc1cc(C(=O)Nc2ncccc2O)ccc1OCCOc1ccccc1 | 18% | -2.34 |  |  |
| c1ccc(-c2ncn(CCN3CCCCC3)c2-c2cnn3cccnc23)cc1 | -12% | 1.19 |  |  |
| CC(C(=O)N1CC[C@H](C)C[C@@H]1C)c1ccccc1 (stereo not given in full) | 2% | -0.19 |  |  |
| O=C(Cc1ccc(CO)cc1)N1C[C@H]2CC[C@@H](C1)N(CC1CCC1)C2=O | -4% | 0.66 |  |  |
| O=C(Cn1nc(-n2cccn2)ccc1=O)NCc1ccco1 | -7% | 1.27 |  |  |
| Cc1cc(F)cc(C)c1C(=O)NCCS(N)(=O)=O | -4% | 0.48 |  |  |

— ChEMBL document CHEMBL4888484, “Replenishing the malaria drug discovery pipeline: Screening and hit evaluation of the MMV Hit Generation Library 1 (HGL1) against asexual blood stage Plasmodium falciparum ,using a nano luciferase reporter read-out” (2022)
